According to article PMC4242493:
The list shows a part of the results. The list includes weakly bound sequences.

The sequences below were run against MaxL homodimer (UniProt P61244) (assay: universal protein-binding microarray (PBM)). Details: PBS-based mixture, 10 nM His-tagged protein dimer, 2% milk, 200 ng/uL BSA, 50 ng/uL salmon testes DNA, 0.02% TX-100; detection with Alexa 488 anti-His …; high values mean tight binding; most listed sequences are background and not binding sites; double strand, one strand shown.
Sequence of UniProt P61244 (P61244 whole entry): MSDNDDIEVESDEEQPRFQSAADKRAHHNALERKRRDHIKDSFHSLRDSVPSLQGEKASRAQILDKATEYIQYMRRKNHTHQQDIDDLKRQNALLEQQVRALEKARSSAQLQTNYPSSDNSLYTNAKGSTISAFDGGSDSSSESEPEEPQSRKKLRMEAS

Row | Sequence | binding signal (normalized occupancy)
1 | GGGGTCCA | 0.076
2 | AACCCGGC | 0.0653
3 | CTCGACTA | 0.0717
4 | ATTTACAA | 0.0755
5 | ATGTTGCG | 0.0775
6 | AGACGACT | 0.0701
7 | ACATGTGC | 0.197
8 | AAATGCGG | 0.0791
9 | GGAATCAA | 0.0733
10 | ACAGGTAT | 0.0836
11 | CACACTGG | 0.0819
12 | AAGGCGCG | 0.0757
13 | CCGCGACC | 0.0691
14 | TACCCTAA | 0.0753
15 | ACTGGACT | 0.0702
16 | CGACTCAG | 0.0707
17 | GCAGCACC | 0.0745
18 | CAGTGATG | 0.0746
19 | ATATTATC | 0.0863
20 | GAGTTTAC | 0.0732
21 | AGGGCGGG | 0.0768
22 | ATGATACC | 0.0795
23 | TACCATAA | 0.0783
24 | ACTCTGAC | 0.0716
25 | TCATGAAA | 0.0788

Row | Sequence | binding signal (normalized occupancy)
26 | CGTAGACG | 0.0691
27 | GGCTGAAC | 0.0689
28 | GGTCCTCA | 0.0714
29 | AAAATCGC | 0.0722
30 | AGCTAGAT | 0.0759
31 | ACTTTGGC | 0.07
32 | AGCGTTGC | 0.0728
33 | AAAACCTG | 0.0774
34 | CATACGAG | 0.0793
35 | CAACGTAC | 0.0758
36 | CATTACTC | 0.0797
37 | GCGCCTAA | 0.0658
38 | AATGTCAC | 0.0807
39 | CAAGGGGC | 0.0772
40 | AATGACCG | 0.0732
41 | CATTGGAG | 0.07
42 | GACCGTTA | 0.0732
43 | GAGGGACA | 0.0767
44 | AAGTAGAT | 0.0721
45 | ATGGCCAG | 0.0782
46 | TACTATAA | 0.0882
47 | TCCCGGCA | 0.0675
48 | AACAACTT | 0.0698
49 | ACGAACCC | 0.072
50 | CAACTACG | 0.0717

Row | Sequence | binding signal (normalized occupancy)
51 | TCAGCCCA | 0.0771
52 | CGGATCTA | 0.0784
53 | ACTAAGCA | 0.0845
54 | AAGTTGAA | 0.0743
55 | AACGCGTA | 0.0792
56 | CATCATAC | 0.0827
57 | CGCACGAC | 0.0787
58 | TACTTAGA | 0.0735
59 | GTAGAAAA | 0.0747
60 | GAGTATGA | 0.0832
61 | GTGACATA | 0.0816
62 | TCGCTAAA | 0.0733
63 | CGGGGTTA | 0.0781
64 | AGGATGGG | 0.077
65 | GAAGAACC | 0.0735
66 | ATGAAGTC | 0.0771
67 | CTTGGCAA | 0.0746
68 | AACGTATG | 0.0809
69 | ACATAGGA | 0.0874
70 | GGGGCCCC | 0.0672
71 | ATTCAAGA | 0.0708
72 | ATTGCGCG | 0.0747
73 | GACTCCTC | 0.0692
74 | AGAACCCT | 0.0728
75 | CCACTAGC | 0.0779

Row | Sequence | binding signal (normalized occupancy)
76 | ATAGCACA | 0.0775
77 | CACTACCG | 0.0753
78 | TACAAGCA | 0.0772
79 | ATTTTGAC | 0.0815
80 | CAGCCCCA | 0.0738
81 | GCTTCGCC | 0.0612
82 | CGAGTGAC | 0.0731
83 | ATGGCTAG | 0.0798
84 | CTTATAAG | 0.0712
85 | CGGGTCAA | 0.0729
86 | AGATGTCC | 0.0794
87 | CGACGCAC | 0.0773
88 | GTGACGCA | 0.0772
89 | ACCGGACT | 0.0692
90 | TAAAGAGA | 0.0738
91 | GGACTAAA | 0.0695
92 | CATACGGC | 0.0791
93 | GTAATTCA | 0.0752
94 | GTCCACAA | 0.0768
95 | CGTAGCTA | 0.0725
96 | ACTCCTCC | 0.0748
97 | CAAATTAA | 0.0753
98 | TCTCTGAA | 0.0683
99 | AACCTCAT | 0.0862
100 | ACTAGCCC | 0.0747

Row | Sequence | binding signal (normalized occupancy)
101 | ATGCGCTG | 0.0738
102 | CCCCGGTC | 0.0711
103 | ACACGAGA | 0.0977
104 | CCAGTGGG | 0.0697
105 | CCTCTCAG | 0.0693
106 | CGCTAGTA | 0.0705
107 | CTCAGAAC | 0.0759
108 | CCCCCAGA | 0.0717
109 | ATTTCCAC | 0.0826
110 | GGAGGGGA | 0.0711
111 | ACTTTTAA | 0.0712
112 | TCTCCAGA | 0.0693
113 | CAATATGA | 0.0822
114 | ACCCACCC | 0.0857
115 | ATTTTCTC | 0.0747
116 | CCCATTAC | 0.0777
117 | CATATATA | 0.0904
118 | ATATGCGG | 0.085
119 | GACCCCTA | 0.0761
120 | GCATTATA | 0.0841
121 | ATGTTCCG | 0.0732
122 | ATCACAAG | 0.0826
123 | AATGAGAA | 0.072
124 | AGCTCCGG | 0.071
125 | ACCATGCA | 0.0972

Row | Sequence | binding signal (normalized occupancy)
126 | AGACCCGG | 0.0703
127 | TACTGACA | 0.0743
128 | TCATCGGA | 0.0748
129 | AGAGTAAT | 0.072
130 | ACCCTACA | 0.0836
131 | GGGCCCTA | 0.0705
132 | ACGGTTCC | 0.0706
133 | ACTTGAGA | 0.075
134 | ACGTCCCT | 0.0811
135 | AAATCCGT | 0.0746
136 | CATCATCA | 0.0814
137 | ATAGCCAC | 0.0774
138 | CCTTAAAC | 0.071
139 | CTGCGCGC | 0.0677
140 | GCGGATAA | 0.0755
141 | CCCGGACG | 0.0693
142 | CGAAGGTA | 0.0721
143 | AGGTGTAT | 0.0924
144 | AGCCCTCC | 0.0723
145 | AGTTCGAG | 0.0741
146 | GGCAAAGA | 0.069
147 | GAGCTCCC | 0.0719
148 | GGTTAAAA | 0.074
149 | ATAGATGA | 0.0839
150 | CCGCGCAC | 0.0818

Row | Sequence | binding signal (normalized occupancy)
151 | AGATCCAT | 0.0807
152 | CGGGTACG | 0.0725
153 | CCCACTTA | 0.0731
154 | AGGGTAGA | 0.0739
155 | GTATGCAC | 0.0856
156 | AGACACTG | 0.0732
157 | CAGCCTTC | 0.0653
158 | CCCCATGC | 0.107
159 | GTAGTCAC | 0.0739
160 | GACTTCGA | 0.0753
161 | ACGTCTGC | 0.0758
162 | AAAGTGAT | 0.075
163 | ATCTATGG | 0.0809
164 | CTAATGTA | 0.078
165 | CAACGAGA | 0.0767
166 | ACACGCAC | 0.0931
167 | GGCGCACA | 0.0793
168 | AGTGGTAC | 0.0769
169 | CCGCCCGA | 0.0697
170 | GCGACGAC | 0.0733
171 | CGCAGTCC | 0.0666
172 | AGATAAAA | 0.0769
173 | AGTCCGTA | 0.0727
174 | AGATTAGC | 0.0753
175 | GCATCGCC | 0.0665

Row | Sequence | binding signal (normalized occupancy)
176 | GTGTCGCA | 0.078
177 | GACCCCAC | 0.0809
178 | ATACCGCC | 0.0743
179 | CTCTTGCC | 0.0699
180 | AGGCGCAC | 0.082
181 | ACCACGGC | 0.0743
182 | CATCAATA | 0.0852
183 | CTCCGAGC | 0.0709
184 | ATCTATTC | 0.0842
185 | AGTCTGGC | 0.0663
186 | ACACATGA | 0.107
187 | GTCTAGGA | 0.0723
188 | AGTAGGGC | 0.0686
189 | AGAGTGCC | 0.0774
190 | CACCCTGG | 0.0757
191 | CACACTCA | 0.0754
192 | GCACTGGA | 0.066
193 | ATAGGACA | 0.0791
194 | ACTGGGGC | 0.0709
195 | ATATAAAT | 0.0765
196 | TACACCTA | 0.0789
197 | CGCGCCTC | 0.0733
198 | CCGCGTGC | 0.145
199 | CCCAGTCG | 0.0698
200 | AGATAGGC | 0.078

Row | Sequence | binding signal (normalized occupancy)
201 | ATTAAATA | 0.0778
202 | CGTACTGA | 0.0729
203 | CCGTCAAA | 0.0691
204 | CGATGCAG | 0.0742
205 | ATGTTCGC | 0.077
206 | ACAGTTAC | 0.0737
207 | CCCGTCAG | 0.0731
208 | GGCGGCCC | 0.0729
209 | ACGTCGCT | 0.0755
210 | ATTCATGC | 0.0905
211 | CTACGGGA | 0.0733
212 | CCGGCCGG | 0.0626
213 | CAGCCGAG | 0.0665
214 | AACCCTAA | 0.0715
215 | CTCTCATA | 0.0864
216 | GGTCGACC | 0.0724
217 | CCACTTAG | 0.0706
218 | ACGCATTA | 0.0813
219 | GAGCGCGC | 0.0806
